Results: paper PMC5121659, “TGF beta receptor II interacting protein-1, an intracellular protein has an extracellular role as a modulator of matrix mineralization” (Scientific Reports, 2016)

Target: T1, Recombinant rat tail Type 1 Collagen (rat, UniProt P02454 152-1207; P02466 86-1125)
T1 construct: collagen alpha-1(I) chain, rat (rat tail type 1 collagen); collagen alpha-2(I) chain, rat (rat tail type 1 collagen); rat tail collagen is commonly extracted from tissue; also called Collagen 1; collagen I; source: bought: Bbiosciences (1 mg/ml)
Experiment: SPR; BIAcore T200; type 1 collagen immobilised on a CM5 chip by amine coupling (2622 RU), 25 °C; rTRIP-1 as analyte, 0–200 μg at 2-fold dilution, 20 μL/min, PBS-P (0.5% Surfactant P20) pH 7.4; steady state analysis; apparent
Settings: both partners purified

T1 sequence (P02454 152-1207, chain 1 of 2): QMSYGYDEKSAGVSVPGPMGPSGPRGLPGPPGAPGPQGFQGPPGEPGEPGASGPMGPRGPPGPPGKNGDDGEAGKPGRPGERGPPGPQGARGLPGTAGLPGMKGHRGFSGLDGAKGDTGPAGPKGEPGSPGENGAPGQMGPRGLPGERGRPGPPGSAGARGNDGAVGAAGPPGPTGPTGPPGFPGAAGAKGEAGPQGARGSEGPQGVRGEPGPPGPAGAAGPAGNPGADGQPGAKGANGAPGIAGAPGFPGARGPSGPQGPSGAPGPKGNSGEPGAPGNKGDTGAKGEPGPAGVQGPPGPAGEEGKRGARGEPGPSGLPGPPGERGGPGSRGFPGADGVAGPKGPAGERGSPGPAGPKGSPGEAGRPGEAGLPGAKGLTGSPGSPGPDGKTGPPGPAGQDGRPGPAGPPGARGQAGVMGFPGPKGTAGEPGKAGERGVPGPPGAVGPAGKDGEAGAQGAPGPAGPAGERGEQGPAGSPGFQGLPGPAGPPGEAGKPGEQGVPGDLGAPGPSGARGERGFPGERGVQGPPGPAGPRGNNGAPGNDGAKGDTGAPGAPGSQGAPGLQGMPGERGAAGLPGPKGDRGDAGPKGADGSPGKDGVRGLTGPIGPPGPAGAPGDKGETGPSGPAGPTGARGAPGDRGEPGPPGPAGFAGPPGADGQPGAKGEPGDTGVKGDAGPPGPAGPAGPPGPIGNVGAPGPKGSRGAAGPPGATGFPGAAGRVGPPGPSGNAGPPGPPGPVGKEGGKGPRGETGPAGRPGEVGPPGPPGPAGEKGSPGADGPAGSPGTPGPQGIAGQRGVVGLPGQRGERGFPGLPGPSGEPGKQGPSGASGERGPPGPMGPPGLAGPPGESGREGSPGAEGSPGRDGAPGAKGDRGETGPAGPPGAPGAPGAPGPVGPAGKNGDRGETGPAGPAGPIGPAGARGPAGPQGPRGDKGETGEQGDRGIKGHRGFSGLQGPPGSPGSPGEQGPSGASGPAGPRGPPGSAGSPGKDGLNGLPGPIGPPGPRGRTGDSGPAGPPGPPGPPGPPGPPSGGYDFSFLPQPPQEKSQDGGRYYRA
T1 sequence (P02466 86-1125, chain 2 of 2, further chain): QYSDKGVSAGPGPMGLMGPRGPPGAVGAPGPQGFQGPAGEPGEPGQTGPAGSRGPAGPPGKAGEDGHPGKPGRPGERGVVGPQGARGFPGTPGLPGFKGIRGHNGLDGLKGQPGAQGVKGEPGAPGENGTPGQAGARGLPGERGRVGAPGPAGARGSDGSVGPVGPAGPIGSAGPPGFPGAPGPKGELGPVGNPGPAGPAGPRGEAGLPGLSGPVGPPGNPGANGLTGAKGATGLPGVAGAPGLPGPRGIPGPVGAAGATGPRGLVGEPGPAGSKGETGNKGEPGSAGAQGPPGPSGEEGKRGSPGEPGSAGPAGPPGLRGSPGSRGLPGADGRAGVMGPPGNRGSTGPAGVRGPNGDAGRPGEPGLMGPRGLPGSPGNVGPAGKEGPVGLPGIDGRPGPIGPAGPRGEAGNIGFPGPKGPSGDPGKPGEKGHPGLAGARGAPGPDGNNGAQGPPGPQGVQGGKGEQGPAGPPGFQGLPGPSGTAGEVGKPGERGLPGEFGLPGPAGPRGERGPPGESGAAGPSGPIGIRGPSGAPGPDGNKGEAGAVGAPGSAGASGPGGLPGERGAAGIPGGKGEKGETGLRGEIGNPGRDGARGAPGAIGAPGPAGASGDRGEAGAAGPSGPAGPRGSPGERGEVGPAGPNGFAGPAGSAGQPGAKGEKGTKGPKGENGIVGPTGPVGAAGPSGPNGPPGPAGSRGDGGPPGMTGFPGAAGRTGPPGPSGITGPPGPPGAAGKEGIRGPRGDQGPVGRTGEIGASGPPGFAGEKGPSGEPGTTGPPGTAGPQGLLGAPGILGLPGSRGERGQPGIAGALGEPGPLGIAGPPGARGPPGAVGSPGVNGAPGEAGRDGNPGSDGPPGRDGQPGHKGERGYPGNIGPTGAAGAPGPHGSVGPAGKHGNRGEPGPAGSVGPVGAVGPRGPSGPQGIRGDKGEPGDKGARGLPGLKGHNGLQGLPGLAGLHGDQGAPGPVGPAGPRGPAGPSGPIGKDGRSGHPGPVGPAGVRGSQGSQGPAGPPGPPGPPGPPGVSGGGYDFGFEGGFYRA

Kd: 48.6 µM
B1: Recombinant TRIP-1 (TGF beta receptor II interacting protein 1) (natural protein)
chain: not shown
notes: TRIP-1 (eIF3i, subunit i of eukaryotic initiation factor 3); 973-bp fragment corresponding to the coding region of TRIP-1 cloned into the Sph I/Sal I sites of pQE-30; also called rTRIP-1; eIF3i; source: E. coli (pQE-30 plasmid), purified (Ni-NTA Superflow, native conditions), dialyzed, lyophilized
